{"source": "paper PMC7819943", "about": "“Rice protein-binding microarrays: a tool to detect cis-acting elements near promoter regions in rice”", "note": "The list shows a part of the results.", "data": [{"target": "T1, OsWOX13 (Oryza sativa, UniProt Q5QMM3 1-267)", "T1 sequence": "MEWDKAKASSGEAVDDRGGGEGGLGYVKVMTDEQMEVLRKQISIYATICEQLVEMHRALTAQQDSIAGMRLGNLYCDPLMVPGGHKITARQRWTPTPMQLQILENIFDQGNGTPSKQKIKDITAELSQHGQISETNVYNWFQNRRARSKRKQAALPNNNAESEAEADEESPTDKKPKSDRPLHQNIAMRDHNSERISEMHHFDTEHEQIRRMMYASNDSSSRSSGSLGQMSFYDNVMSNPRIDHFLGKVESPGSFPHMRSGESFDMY", "assay": "protein-binding microarray (RPBM); PBS, 2% BSA, 51.3 ng/ul salmon testes DNA, 50 uM zinc acetate, 200 nM TF, 25 C, 1 h; high values mean tight binding", "settings": "protein: recombinant; tags: N-terminal polyhistidine and DsRed monomer fusion (pET32a); label: CyDye5-dUTP incorporated in the synthesized complementary strand; 3' TTTTT single-stranded linker to array surface; dsDNA, one strand shown", "how_it_was_run": "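The binding signal is fluorescence intensity per feature, in arbitrary units, read on an Axon 4000B scanner. Polyhistidine- and DsRed-tagged transcription factors (N-terminal fusions) from E. coli BL21-CodonPlus were purified on Ni–NTA and applied at 200 nM for 1 h at 25 °C to a double-stranded, BSA-blocked custom Agilent array in buffer with 50 µM zinc acetate.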", "values": [{"sequence": "ATAAAGATTGAAAGGCCCAAAACGAATGTACCCGAATTCACGGAGTCACCTAGTGCAG", "binding signal": "8310 fluorescence intensity (a.u.)"}, {"sequence": "TTTTAAGTTAATGATTAGAGCCTTTATCGTCTCAACTATTCGGAGTCACCTAGTGCAG", "binding signal": "5570 fluorescence intensity (a.u.)"}, {"sequence": "AACCAAATTAAACACAACATCACATGGAAAACTACTCTAACGGAGTCACCTAGTGCAG", "binding signal": "4460 fluorescence intensity (a.u.)"}, {"sequence": "TTAATTTAATCACGCCACAAATTCCTGTCACCTTCGACCGCGGAGTCACCTAGTGCAG", "binding signal": "32200 fluorescence intensity (a.u.)"}, {"sequence": "TGGGGATTGGATTGCTATCTCGCGCGAGTGCTAGGAAGCTCGGAGTCACCTAGTGCAG", "binding signal": "5180 fluorescence intensity (a.u.)"}, {"sequence": "TTGTAAATTTGTGGACTTAAGTGAAACCTCATGACAAATTCGGAGTCACCTAGTGCAG", "binding signal": "3980 fluorescence intensity (a.u.)"}, {"sequence": "GTAATATAAGATTGGAATGGATAAATTCTAATACGAAGTACGGAGTCACCTAGTGCAG", "binding signal": "5640 fluorescence intensity (a.u.)"}, {"sequence": "TGTAATTAAAGTAATTTGGATAATAAAGTAAGTCACAAATCGGAGTCACCTAGTGCAG", "binding signal": "15100 fluorescence intensity (a.u.)"}, {"sequence": "TCCGTAATTGAATTCGTCATCTGATCCGATCCGAACGACCCGGAGTCACCTAGTGCAG", "binding signal": "43000 fluorescence intensity (a.u.)"}, {"sequence": "ACCAATTAAGACTACAAATTTGAGCAGATTCAAATTAAGCCGGAGTCACCTAGTGCAG", "binding signal": "11700 fluorescence intensity (a.u.)"}, {"sequence": "GTTCTCAATAAATTGAACCCTCTCCAATCTCCATGGCCTCCGGAGTCACCTAGTGCAG", "binding signal": "4140 fluorescence intensity (a.u.)"}, {"sequence": "TAACAAAACTGACAGAGTGATAAAAGAGGTGCAGATTGTGCGGAGTCACCTAGTGCAG", "binding signal": "6190 fluorescence intensity (a.u.)"}, {"sequence": "AATTATGATTGGATCATCCACAACAACCTCACAACACAAACGGAGTCACCTAGTGCAG", "binding signal": "25500 fluorescence intensity (a.u.)"}, {"sequence": "CTTGATTATACTTGAGATTTCCAGAAGCCTGCATTTCAGCCGGAGTCACCTAGTGCAG", "binding signal": "28700 fluorescence intensity (a.u.)"}, {"sequence": "AACAATTTTAGATAATCAGTAGGTATGTCTACTAATTGGTCGGAGTCACCTAGTGCAG", "binding signal": "6280 fluorescence intensity (a.u.)"}, {"sequence": "TCAAATAAATGTTTATAATAATTAATAATACTCGATTAACCGGAGTCACCTAGTGCAG", "binding signal": "3350 fluorescence intensity (a.u.)"}, {"sequence": "TCTGTAAATAGATGGATGAACAGAGTATCTGTAGTCTGTACGGAGTCACCTAGTGCAG", "binding signal": "12200 fluorescence intensity (a.u.)"}, {"sequence": "ATGATGATGTATTTGATGTTGCATGCTTTGAATGAGTATTCGGAGTCACCTAGTGCAG", "binding signal": "7940 fluorescence intensity (a.u.)"}, {"sequence": "TTTTGATTCGATTGGATGAATGGTATACTTAGTATGGAATCGGAGTCACCTAGTGCAG", "binding signal": "8200 fluorescence intensity (a.u.)"}, {"sequence": "GTTTTGTGACACATTTTCTAATTTACAACACGGCACTCCACGGAGTCACCTAGTGCAG", "binding signal": "3160 fluorescence intensity (a.u.)"}, {"sequence": "GCTAATTAATAATTATGGTTGAACATAGCTGTAAAGATGCCGGAGTCACCTAGTGCAG", "binding signal": "49800 fluorescence intensity (a.u.)"}, {"sequence": "TGTGAAATTTACTCAATCTTGAGTCGGACCATCGTTGTCTCGGAGTCACCTAGTGCAG", "binding signal": "10500 fluorescence intensity (a.u.)"}, {"sequence": "GGTGTAATTAGCTATCCTGTGAAAAGGTGTATTGGATCATCGGAGTCACCTAGTGCAG", "binding signal": "22500 fluorescence intensity (a.u.)"}, {"sequence": "GCATTTGCTAATGATGGATTAATTAGGCTTAATAGATTCGCGGAGTCACCTAGTGCAG", "binding signal": "11800 fluorescence intensity (a.u.)"}, {"sequence": "AGCAAATTGTCGGCTTGAATTGGTTTGGTTACTGGTTTAGCGGAGTCACCTAGTGCAG", "binding signal": "7160 fluorescence intensity (a.u.)"}, {"sequence": "TAATACTTCTAATTAGTGTCGAAACATCCGATGTGACAGGCGGAGTCACCTAGTGCAG", "binding signal": "7480 fluorescence intensity (a.u.)"}, {"sequence": "TACAAATTTAACAAGAATTTTGATTCTTTTCGTGGTTGCACGGAGTCACCTAGTGCAG", "binding signal": "12000 fluorescence intensity (a.u.)"}, {"sequence": "TATAATTTATCTAATTAAGGTCTTTGAAAACATGCTGTGACGGAGTCACCTAGTGCAG", "binding signal": "34900 fluorescence intensity (a.u.)"}, {"sequence": "CGAAATATAACAAATTTAGTATCAAACTACATACCTGTAACGGAGTCACCTAGTGCAG", "binding signal": "6080 fluorescence intensity (a.u.)"}, {"sequence": "TCTTTTCTTTTCCTTGATTAATGTGAGAATTTCTAGTCTCCGGAGTCACCTAGTGCAG", "binding signal": "5180 fluorescence intensity (a.u.)"}, {"sequence": "CTTCGGTTGTCATCTAAATATGATGGATTGCCCCTGCTTCCGGAGTCACCTAGTGCAG", "binding signal": "3620 fluorescence intensity (a.u.)"}, {"sequence": "GATTAATTGGGAATTGAAAGCATATGCACTGCATTTGGTACGGAGTCACCTAGTGCAG", "binding signal": "37200 fluorescence intensity (a.u.)"}, {"sequence": "CACTGATATATAATAAGCACCCAACATGTTATGGAACGATCGGAGTCACCTAGTGCAG", "binding signal": "3290 fluorescence intensity (a.u.)"}, {"sequence": "AAGATACACGATTGATTCATTGTTTGCACCAACAATATGCCGGAGTCACCTAGTGCAG", "binding signal": "5310 fluorescence intensity (a.u.)"}, {"sequence": "TATAACTAATTATTTAATCGTTAATAAGCTGTTCCGCTAACGGAGTCACCTAGTGCAG", "binding signal": "25600 fluorescence intensity (a.u.)"}, {"sequence": "CATTGATTGACATTGTTGAGGCAGTACTGTTACAGTTGAGCGGAGTCACCTAGTGCAG", "binding signal": "59400 fluorescence intensity (a.u.)"}, {"sequence": "AGCCCGATAATTAGATTGATTATAGACATGACTACATATACGGAGTCACCTAGTGCAG", "binding signal": "18200 fluorescence intensity (a.u.)"}, {"sequence": "GTTAATTAATTTCATTAGCAACTGCGTACTCTGTCATGTTCGGAGTCACCTAGTGCAG", "binding signal": "37900 fluorescence intensity (a.u.)"}, {"sequence": "CCTGCCTGATTTAAAGCAGTTGAAACAAAGCAAAGCGCTTCGGAGTCACCTAGTGCAG", "binding signal": "5610 fluorescence intensity (a.u.)"}, {"sequence": "TATGTGGGTGATTTGTTACAACGGCGCGTTCCATAATATTCGGAGTCACCTAGTGCAG", "binding signal": "4360 fluorescence intensity (a.u.)"}, {"sequence": "AAAACTAAATTGAAATATCAATGATATTATTTTCAGAAAACGGAGTCACCTAGTGCAG", "binding signal": "6060 fluorescence intensity (a.u.)"}, {"sequence": "GAATAATTAATAATAATCACAACAAGGTGATGTTAGAGATCGGAGTCACCTAGTGCAG", "binding signal": "27000 fluorescence intensity (a.u.)"}]}]}
